This is one part of the list.

For the assay, the target named is T1, OsWOX13 (Oryza sativa, UniProt Q5QMM3 1-267).
T1 sequence: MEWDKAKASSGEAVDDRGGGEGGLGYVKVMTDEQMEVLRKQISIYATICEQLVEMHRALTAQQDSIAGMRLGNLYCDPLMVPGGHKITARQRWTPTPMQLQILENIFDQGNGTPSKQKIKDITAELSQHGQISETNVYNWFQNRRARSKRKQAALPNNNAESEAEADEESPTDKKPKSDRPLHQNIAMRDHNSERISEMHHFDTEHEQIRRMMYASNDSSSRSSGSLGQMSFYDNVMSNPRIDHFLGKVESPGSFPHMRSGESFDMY
Put plainly: protein-binding microarray (RPBM); PBS, 2% BSA, 51.3 ng/ul salmon testes DNA, 50 uM zinc acetate, 200 nM TF, 25 C, 1 h; high values mean tight binding. Particulars: protein: recombinant; tags: N-terminal polyhistidine and DsRed monomer fusion (pET32a); label: CyDye5-dUTP incorporated in the synthesized complementary strand; 3' TTTTT single-stranded linker to array surface; dsDNA, one strand shown. Summed up: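 An Axon 4000B scanner gave the binding signal as per-feature fluorescence intensity in arbitrary units. This followed washing of a custom Agilent array that had been incubated for 1 h at 25 °C with 200 nM protein in PBS, 2% BSA, salmon testes DNA and 50 µM zinc acetate. The proteins were transcription factors fused at the N-terminus to polyhistidine and DsRed, expressed in E. coli BL21-CodonPlus and purified on Ni–NTA.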
As to “GTGTGATTAGCATGCCCCAGACCGGAAGGTGAAGCTGCTACGGAGTCACCTAGTGCAG”, the binding signal was 36200 fluorescence intensity (a.u.).
The result for “ACGACTGTAATTATTTTGGAACGGAGGTAGCAGTGATTTTCGGAGTCACCTAGTGCAG” reads 4120 fluorescence intensity (a.u.); that for “GCCATAAATTGAACACTGAAATCTAGCAGTCTAAGTGGCACGGAGTCACCTAGTGCAG”, 35200 fluorescence intensity (a.u.); that for “TTGGATTTGGGTTAATTTGCTTGATGTATGGTGGACGGATCGGAGTCACCTAGTGCAG”, 17200 fluorescence intensity (a.u.).
The same measure for “GAGAATTTTGTAATTTGAATTGAGTAAATTTCATCATTAGCGGAGTCACCTAGTGCAG”: 15300 fluorescence intensity (a.u.); for “ACCGTTGATGATACCTGATCTTGTGATGTTCTTACCTGTTCGGAGTCACCTAGTGCAG”: 4430 fluorescence intensity (a.u.).
The same measure for “GCTAATTTGGTTTGAGATCTAAATTGACCTTACCAATATTCGGAGTCACCTAGTGCAG”: 16900 fluorescence intensity (a.u.); for “ATTAAATGCACTAATTTGCATTACAAAATTAATTAATACACGGAGTCACCTAGTGCAG”: 26600 fluorescence intensity (a.u.); for “TTTTAGTAAATTAATAAATATTTATTTTGTTATTTAATACCGGAGTCACCTAGTGCAG”: 13200 fluorescence intensity (a.u.).
As for “TTTGATGGAACATAAACCAAAATTTGAATAGAAAATTATCCGGAGTCACCTAGTGCAG”, the binding signal was 7760 fluorescence intensity (a.u.).
The result for “CTGATTAACGTGAGAGCTTGTAGAAAGTGCCCAATTAGTACGGAGTCACCTAGTGCAG” reads 9890 fluorescence intensity (a.u.); that for “ACTTTGAAGATATTGACTGGAACAGTAACCTTGCTGCAGACGGAGTCACCTAGTGCAG”, 5740 fluorescence intensity (a.u.); that for “TTGCTAAATTGTTGTCTTGGTTGATATTTTAGATTTCTTGCGGAGTCACCTAGTGCAG”, 10000 fluorescence intensity (a.u.).
The same measure for “TGTTTAATTTGTTTATTTTAACTTGAAGAAGTTGAATTTTCGGAGTCACCTAGTGCAG”: 12800 fluorescence intensity (a.u.).
In the case of “TATTTTGACAAATTAAACTACTGCTATAGTATGGCATCAACGGAGTCACCTAGTGCAG”, the binding signal is 5500 fluorescence intensity (a.u.).
The same measure for “GTATTTGATTTGTGTGCGATGTGAACTTGTGATGTATTTGCGGAGTCACCTAGTGCAG”: 25400 fluorescence intensity (a.u.); for “CCATAATTGGACTACATCTCCATTTATAACAGGGGATTCGCGGAGTCACCTAGTGCAG”: 41100 fluorescence intensity (a.u.); for “AATGAAATTAATTTGGTATATTAGATATTACTAGAACAAACGGAGTCACCTAGTGCAG”: 8940 fluorescence intensity (a.u.).
The result for “CAGTGTTAATTGGATGTGACTTTATGCAGCTATTATGTATCGGAGTCACCTAGTGCAG” reads 47200 fluorescence intensity (a.u.); that for “ATCCATCAAATCAACCACACTAATTACTCCATCATTTAATCGGAGTCACCTAGTGCAG”, 13600 fluorescence intensity (a.u.).
The same measure for “CGTAAATTTTCAATAAAATTTTAGTGAAATCAGGAATATGCGGAGTCACCTAGTGCAG”: 17500 fluorescence intensity (a.u.); for “AAGATTTGTCTCATAAATTAGTCGCAATATGTGTAATTAGCGGAGTCACCTAGTGCAG”: 7560 fluorescence intensity (a.u.).
Take “GAGATTAACTGAAAGCTGGTGGCCATCATTTGCAATGCTGCGGAGTCACCTAGTGCAG”: the binding signal is 17800 fluorescence intensity (a.u.).
As for “TTTTATTTTGAATTTTGATTAATGTCGTATTGGCTTCCTACGGAGTCACCTAGTGCAG”, the binding signal is 4180 fluorescence intensity (a.u.).
The same measure for “GCCGACTAATTGGTGCCAGCGCCGGAACAGGCAATAATAGCGGAGTCACCTAGTGCAG”: 14800 fluorescence intensity (a.u.); for “TTTAATATGACATATTTAATTAGTCTTAATAAATTCGTCTCGGAGTCACCTAGTGCAG”: 20700 fluorescence intensity (a.u.).
Turning to “TCTTTGACAGAAGTACTTGCTCCTGTCATTTTCAGTGCTACGGAGTCACCTAGTGCAG”, the binding signal was 8110 fluorescence intensity (a.u.).
The result for “AACAAAATAAATTATCTTTTGGATGCTGCCGCGAAATTCACGGAGTCACCTAGTGCAG” reads 4100 fluorescence intensity (a.u.); that for “AGTCAATATTGGAATATAATTTAGAAGTAACTGAAATTCGCGGAGTCACCTAGTGCAG”, 6820 fluorescence intensity (a.u.); that for “GGGTAACAATCAACGCTCATCGCTCATCTATTTCTTTGTACGGAGTCACCTAGTGCAG”, 6070 fluorescence intensity (a.u.).
The result for “GATCAAATCAATCTACAGGAAGATATCGGGTTTGTCGTTCCGGAGTCACCTAGTGCAG” reads 8430 fluorescence intensity (a.u.).
The same measure for “ACCATCTGTAATTATAAATTTATAATATGCTCATTTGACACGGAGTCACCTAGTGCAG”: 29100 fluorescence intensity (a.u.); for “CGTACAATATTAATTAAAGTGTTTAAGAAACAGAGACTAGCGGAGTCACCTAGTGCAG”: 3740 fluorescence intensity (a.u.).
As for “ACCAAATGACATGACTCACTTAGATCCTAATAGGACATCCCGGAGTCACCTAGTGCAG”, the binding signal was 6450 fluorescence intensity (a.u.).
The same measure for “AATACAGGATTAAGAGACATAATGGAGTAAATCTTGTGCACGGAGTCACCTAGTGCAG”: 3200 fluorescence intensity (a.u.); for “GCTAACTTATCAGTAACACAATATATTGATAAGTTCGAGGCGGAGTCACCTAGTGCAG”: 13700 fluorescence intensity (a.u.); for “CGTTAAATAAACTGAGGAGAGCTTGGATTTCTCATCTCCACGGAGTCACCTAGTGCAG”: 7290 fluorescence intensity (a.u.).
The same measure for “ATCATGAACTAATTAGGTTTAAAAGATTCGTCTCGCGAATCGGAGTCACCTAGTGCAG”: 9480 fluorescence intensity (a.u.).
The result for “CGATCAATTTCCTGGCCCAAACTAGTTTGATGTGTGGTTTCGGAGTCACCTAGTGCAG” reads 3370 fluorescence intensity (a.u.); that for “TTACAATTACAGATACTAATGTATGGGGTAATAGAAAGGTCGGAGTCACCTAGTGCAG”, 8770 fluorescence intensity (a.u.).
Consider “TGTTTTGATTTGCCTCTCAAAATAATACGTCCGCATCTCGCGGAGTCACCTAGTGCAG”, for which the binding signal is 13500 fluorescence intensity (a.u.).
The same measure for “AGAGTAATAATTGTACTCTATTATCAATTTGTTATTGTGTCGGAGTCACCTAGTGCAG”: 8010 fluorescence intensity (a.u.).

For the origin of these results see article PMC7819943, “Rice protein-binding microarrays: a tool to detect cis-acting elements near promoter regions in rice”.
